Reference: US10201586B2 (dated 2019)
At least one compound was matched to its structure with a doubt left. Where a SMILES comes first, the peptide text is derived from it. [ ]: non-standard residue; d: D form. Tle = CC(C)(C)[C@H](N)C(=O)O; Aib = CC(C)(N)C(=O)O

Target: Tissue Factor Pathway Inhibitor (TFPI) (Homo sapiens, UniProt P10646)
Experiment: IC50 ELISA | IC50 [nM]

Sequence of Tissue Factor Pathway Inhibitor (TFPI) (P10646 29-304 limits assumed): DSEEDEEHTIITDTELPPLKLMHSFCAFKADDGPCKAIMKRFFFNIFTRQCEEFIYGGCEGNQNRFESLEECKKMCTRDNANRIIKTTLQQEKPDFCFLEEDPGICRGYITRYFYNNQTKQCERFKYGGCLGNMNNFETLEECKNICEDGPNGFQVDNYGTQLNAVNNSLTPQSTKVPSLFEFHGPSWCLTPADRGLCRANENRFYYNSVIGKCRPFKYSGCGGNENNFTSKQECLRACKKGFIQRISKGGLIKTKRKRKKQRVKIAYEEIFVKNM

CC(=O)N[C@@H](Cc1ccccc1)C(=O)N[C@@H](CCC(N)=O)C(=O)N[C@@H](CS)C(=O)N[C@@H](CCCCN)C(=O)N1CCC[C@@H]1C(=O)N[C@@H](CS)C(=O)N[C@H](C(=O)N[C@@H](Cc1c[nH]cn1)C(=O)N[C@H](C(=O)N[C@@H](CC(=O)O)C(=O)N[C@H](C)C(=O)N[C@@H](Cc1ccc(O)cc1)C(=O)N[C@@H](Cc1ccccc1)C(=O)N[C@@H](CCC(=O)O)C(=O)N[C@@H](CCCNC(=N)N)C(=O)N[C@@H](CC(C)C)C(=O)NC(C)(C)C(=O)N[C@@H](C)C(=O)N[C@@H](CCCCN)C(=O)N[C@@H](CC(C)C)C(N)=O)C(C)(C)C)C(C)C [JBT2443 | 4160, Ac-FQCKpCVH-Tle-DaYFERL-Aib-AKL-NH2] (Ac-FQCK[dP]CVH[Tle]D[dA]YFERL[Aib]AKL-NH2)
IC50: 237 nM
